Measured values reported in the supplement of paper PMC10338343.
± gives the standard deviation. Whole data set: some 6,600 sequences, median “pre-steady-state target cleavage rate” near 0.07, cut for the highest 2% near 0.72. This is a selection; strong and weak results do not stand in their true shares.

test system: MIWI (PIWIL1) piRISC loaded with Kctd7 piRNA (30 nt); assay: pre-steady-state target cleavage rate (min^-1); MIWI and MILI are mouse PIWI proteins and EfPiwi is from a freshwater sponge; tags in brackets are library labels; higher = faster piRNA-guided slicing of the target; conditions: guide: Kctd7 piRNA 5'p-UGUUAAUCUCUCAGAGAAGGUGACAGUGAU; auxiliary factor: 500 nM mouse GTSF1
Method: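 Cleave-'n-Seq: a library of target RNAs (target site embedded in constant flanks, ACAGCATTCCGCGTTAGTGATATCCG... 5' flank; DNA-blocked outside the site) at 0.1 nM was incubated with 1 nM active mouse MILI or MIWI piRISC (synthetic 5'-monophosphorylated piRNA guide) with or without 500 nM mouse GTSF1 at 33 °C for 1 min to 16 h. Uncleaved targets were sequenced and normalised to non-target controls, and the pooled three trials were fitted to a burst-and-steady-state model to give the pre-steady-state cleavage rate (min^-1; k3 is constrained to at most 1e-4). Sequence is the target site only; target names encode pairing extent (gX:gY) and contiguous / 1-mismatch / 2-mismatch / bulge geometry. Fits with R² ≤ 0 are excluded.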

Row | Sequence | pre-steady-state target cleavage rate
1 | UACACUGUCACCUUGACUGAGAGAUUAACA | 0.16 ± 0.028
2 | UUCACUGUCACCUUCUGUGACAGAUUAACA | 0.0405 ± 0.01
3 | UAGUGUGUCACCAUCUCUGAGAGAUUUACA | 0.309 ± 0.047
4 | UAGACUGUCACGUUCUCUGAGAGAUUAAGA | 0.0865 ± 0.016
5 | UUCACUGUCACCUUCUCUCUCAGAUUUUGA | 0.00881 ± 0.0043
6 | UACACUUGUCACCUUCUCUGAGAGAUUAACA | 0.631 ± 0.088
7 | UACACUGUCCCCUUCUCUGAGAGAUUAACA | 0.688 ± 0.036
8 | UAGUGACACACCUUGUCUGAGUGAUUAACA | 0.0146 ± 0.0033
9 | UUGUGUGUCACCUUCUCUGAGAGAUUUUGA | 0.0846 ± 0.018
10 | UAGUGACACACCAUCUCUGAGAGUUUAACA | 0.0697 ± 0.013
11 | UAGUGUGUCACCUACUGUGAGAGAUUAACA | 0.414 ± 0.029
12 | UAGUGACAGACACUUCUCUGAGAGAUUAACA | 0.0364 ± 0.0064
13 | UAGUCUGUCACCUUCUCUGAGAGAUUACA | 0.21 ± 0.035
14 | UAGUGACACACCUUCUCAGAGAGAUAAACA | 0.0317 ± 0.0075
15 | UAGUGACUCACGUUCUCUGAGAGAUUUUGA | < 0.0001
16 | UAGUGACAGUGGAUCUCUCUCAGAUUAACA | < 0.0001
17 | AUCACUGAGACCUUCUCUGAGAGAUUAACA | 0.559 ± 0.021
18 | UAGACUGUCAGCUUCUCUGAGAGAUUAUGA | 0.0141 ± 0.0041
19 | AUCACUGUCACCUUCUCUGAGAGAAUAACA | 0.421 ± 0.078
20 | UAGUGAGUCACCUACACUGAGAGAUUAACA | 0.202 ± 0.018
21 | UAGUGAGUGUCCUUCUCUGAGAGAUUAAGA | 0.0803 ± 0.017
22 | UAGACUGUCACCUACACUGAGAGAUUAACA | 0.307 ± 0.026
23 | UAGACUGACUCCUUCUCUGAGAGAUUAACA | 0.494 ± 0.035
24 | UACACUGUCUCCUUCUCUCAGAGAUUAACA | 0.0717 ± 0.0071

Row | Sequence | pre-steady-state target cleavage rate
25 | UAGUGACAGUCCUUCUCUGAGAGAUUAACU [g2:g20:cont:t1U] | 0.0396 ± 0.005
26 | AUCACUGUCACCUACUCUGAGUGAUUAACA | 0.0274 ± 0.0048
27 | UAGUGAGCUCACCUUCUCUGAGAGAUUAACA | 0.463 ± 0.049
28 | AUCACUGUCACCUUGACUGAGAGAUUUUGA | 0.839 ± 0.22
29 | UAGUGACAGUCCUUCUCUGAGAGAUUACCA | 0.0154 ± 0.0044
30 | UAGUGAGCCACCUUCUCUGAGAGAUUAACA | 0.566 ± 0.049
31 | AUCACUGUCACCUUCACUGAGUGAUUAACA | 0.0332 ± 0.007
32 | UAGACUGUCACCAUCUCUGAGAGAAUAACA | 0.293 ± 0.058
33 | UAGUGUGUGUGCUUCUCUGAGAGAUUAAGA | 0.0191 ± 0.0053
34 | AUCACUGUCUCGUUCUCUGAGAGAUUAACA | 0.667 ± 0.044
35 | UAGUGACACACCUUCUCAGAGAGAUUAUGA | 0.00744 ± 0.004
36 | UAGUGUGUCACCUUCUCUGUGAGAAUAACA | 0.0482 ± 0.0096
37 | UACACUGUCACCUUCUCUCAGAGAUUUACA | 0.0629 ± 0.012
38 | UAGUCUGUCACCUUCUCAGAGAGAUAUUGA | 0.0117 ± 0.0068
39 | UAGUGUGUCACCUUCUCACAGAGAUUAACA | 0.0281 ± 0.0083
40 | UACACUGUCACCAUGUCUGAGAGAUUAACA | 0.162 ± 0.015
41 | UAGUGACAGACCUGCUCUGAGAGAUUAACA | 0.0582 ± 0.0082
42 | UACACUGUCACCCUCUCUGAGAGAUUAACA | 0.601 ± 0.035
43 | UAGACUGUCACCUACUCUGAGAGUUUAACA | 0.147 ± 0.023
44 | UAGUGACUCACCUUCUCUGAGACAUUUACA | 0.021 ± 0.0055
45 | UAGUGUAUCACCUUCUCUGAGAGAUUAACA | 0.443 ± 0.021
46 | UAGUCUGUCACCUUCUCUGUGAGUUUAACA | 0.114 ± 0.013
47 | UAGUGACACACCUGCUCUGAGAGAUUAACA | 0.317 ± 0.024
48 | UAGACUGUCACCUUCCUGAGAGAUUAACA | 0.0692 ± 0.019

Row | Sequence | pre-steady-state target cleavage rate
49 | AGCACUGUCACCUUCUCUGAGAGAUUAACA | 0.765 ± 0.044
50 | UAGUCACUCACCUUCUCUGAGAGAUUUUGA | 0.0618 ± 0.014
51 | UACACUGUCACCUUCUCUGAGAGUUAAACA | 0.333 ± 0.063
52 | UAGUGUGUCACCUUCUCUGAGUGAUUAACA | 0.0272 ± 0.007
53 | UACAUUGUCACCUUCUCUGAGAGAUUAACA | 0.576 ± 0.027
54 | UUCACUGUCACCUUCUCUGAGACUUUUUGA | 0.018 ± 0.0073
55 | UACACUCUCACCUUCUCUGAGAGUUUAACA | 0.121 ± 0.017
56 | UAGACUGUCACCAUCUCUGAGAGUUUAACA | 0.138 ± 0.019
57 | UAGACUGUCACCUUCUCAGAGAGAUUAUCA | 0.186 ± 0.025
58 | UAGUCUGUCUCCUUCUCUGAGAGAAUAACA | 0.222 ± 0.04
59 | UAGUGAGUCACCUACUCUGAGAGAUUAAGA | 0.13 ± 0.021
60 | UUCACUGUGACCUUCUCUGAGAGAUUAACA | 0.601 ± 0.035
61 | UAGUGACACUCCUUCUCUGAGAGAUAAACA | 0.0686 ± 0.0096
62 | UUCACUGUCUCCUUCUCUGUGAGAUUAACA | 0.254 ± 0.018
63 | UAGACUGUCACCUUCUCUGAGAGAUAAAGA | 0.0134 ± 0.0048
64 | UAGUCUGUCACCUUCUCAGAGAGAUUUUGA | 0.0587 ± 0.02
65 | UAGACUGUCACCUACUCUGAGAGAUUAUGA | 0.0146 ± 0.0066
66 | UAGUGACAGUCCUUCUGUGAGAGAUUAAGA | 0.00317 ± 0.0026
67 | UUCACUGUGACCUUCUCUGAGAGAUUUUGA | 0.0706 ± 0.013
68 | UAGUGACAGUCCUUCUCUGAGAGAUUAACC [g2:g20:cont:t1C] | 0.043 ± 0.0069
69 | AUCACUGUCACCUUCUCUGAGAGAAAUACA | 0.165 ± 0.04
70 | UAGUGAGUCACCUUCUGUGAGAGAUUUACA | 0.0976 ± 0.013
71 | UAGUGACUGACCUUCUCUGAGAGAAUAACA | 0.0371 ± 0.011
